Measurements taken from PubChem BioAssay AID463173 (ICCB-Longwood Screening Facility, Harvard Medical School, 2010).
The campaign covered roughly 52,000 compounds. About 4,300 (8.3%) were called active. Rule as the data show it: active = survival mostly below about 52% (no sharp cut-off); inactive = mostly above about 56%. Some of the results follow.

The compounds below were run on DeltatarO mutant (assay: S. aureus survival, RN4220 and DeltatarO strains – OD600, teichoic acid synthesis inhibitors, primary screen (AID 463173)). Conditions: S. aureus RN4220 wild type/DeltatarO growth, OD600, 18 h, hits give low values, screened at 18.75 µg/mL (by protocol).

Question: For CCOc1cccc2cc(-c3cn4c(n3)sc3cc(C)ccc34)c(=O)oc12, which survival is on record?
Answer: active: -4%

Question: For CCNC(=S)N1CCN(CCN=CC2=C(O)CC(C)(C)CC2=O)CC1, which survival is on record?
Answer: inactive: 64%

Question: CCOc1ccccc1NC(=O)CSc1nc2c(c(=O)[nH]1)CCC2 was tested. Which survival did it give?
Answer: inactive: 101%

Question: With COc1cc2c(=O)c(S(=O)(=O)c3ccc(F)cc3)cn(Cc3ccccc3C)c2cc1OC as the compound, how does the survival read?
Answer: inactive: 55%

Question: For Cc1ccc(-n2cc(-c3ccccc3)c3c(NC4CCCC4)ncnc32)cc1, which survival is on record?
Answer: inactive: 74%

Question: COc1cc(OC)c(OC)cc1CNCCSc1nnnn1-c1ccccc1 was tested. Which survival did it give?
Answer: inactive: 61%

Question: With Cc1cccc(N(C)C(=O)CN2C(=O)COc3ccc(S(=O)(=O)N4CCCCCC4)cc32)c1 as the compound, how does the survival read?
Answer: inactive: 89%

Question: How did the survival turn out when CCN(Cc1ccccc1)C(=O)C1CCN(c2ncnc3c2nc2n3CCCCC2)CC1 was run?
Answer: inactive: 90%

Question: COc1cccc(CNC(=O)c2cc3cccc4c3n2CC(C)S4)c1OC (stereo not given) was tested. Which survival did it give?
Answer: inactive: 84%

Question: How did the survival turn out when CCCNC(=O)c1cc2nc(-c3ccc(Br)cc3)cc(C(F)(F)F)n2n1 was run?
Answer: active: 51%

Question: With COc1ccc(Br)cc1CNC(=O)c1cc(=O)[nH]c2ccc(S(=O)(=O)N3CCCC3)cc12 as the compound, how does the survival read?
Answer: inactive: 81%

Question: With CCCCn1c(SCC(=O)OC)nc2ccccc2c1=O as the compound, how does the survival read?
Answer: inactive: 86%

Question: With CCOc1ccc(-n2c(SCc3nc(-c4ccc(OC)cc4)no3)nnc2-c2ccncc2)cc1 as the compound, how does the survival read?
Answer: inactive: 62%

Question: How did the survival turn out when CCOc1cccc2cc(-c3nc4sc5c(c4c(=O)[nH]3)CCC(C(C)(C)C)C5)c(=O)oc12 (stereo not given) was run?
Answer: inactive: 79%

Question: For COc1ccc(Br)cc1CNC(=O)c1cc2ccccn2n1, which survival is on record?
Answer: inactive: 77%

Question: Which survival does the source give for COc1cc(C2c3c(oc4cc(C)c(C)cc4c3=O)C(=O)N2CCCN2CCOCC2)ccc1O (stereo not given) here?
Answer: inactive: 77%

Question: With CCOC(=O)c1cc(S(=O)(=O)Nc2ccc(Br)c(C)c2)[nH]n1 as the compound, how does the survival read?
Answer: inactive: 76%

Question: Which survival does the source give for Cc1ccc2c(c1)c1c(c(=O)n(-c3cccc(Cl)c3)c(=O)n1CC(=O)N1CCCC1)n2C here?
Answer: inactive: 77%

Question: Which survival does the source give for Cc1c(C(=O)N2CCC(c3nc4ccccc4s3)CC2)oc2cc(Br)ccc12 here?
Answer: inactive: 107%

Question: For Cc1n[nH]c(C)c1N1C(=O)c2cccc3c(N4CCCCC4)ccc(c23)C1=O, which survival is on record?
Answer: inactive: 83%

Question: For CC1CCN(C(=O)CSCC(=O)O)CC1, which survival is on record?
Answer: inactive: 91%

Question: How did the survival turn out when Cc1ccc2c(=O)c(C(=O)c3ccccc3)cn(CC(=O)Nc3ccc4c(c3)OCCO4)c2n1 was run?
Answer: inactive: 80%

Question: With Cn1c(=O)c2sccc2n2c(CCC(=O)NCc3ccc(F)cc3)nnc12 as the compound, how does the survival read?
Answer: inactive: 71%

Question: Which survival does the source give for COc1ccc(CCNC(=O)CCn2c(=O)c3ccccc3n(CC(=O)Nc3ccccc3F)c2=O)cc1OC here?
Answer: inactive: 106%

Question: How did the survival turn out when CCOc1ccccc1NC(=O)Cn1c(=O)n(CCC(C)C)c(=O)c2cccnc21 was run?
Answer: inactive: 89%

Question: How did the survival turn out when O=C(COC(=O)c1cc(-c2cccs2)nc2ccccc12)c1ccc(Br)cc1 was run?
Answer: inactive: 127%

Question: How did the survival turn out when Cc1nc2ccccc2n1CCc1nc2c3ccccc3nc(SCc3cccc(F)c3)n2n1 was run?
Answer: inactive: 95%

Question: Which survival does the source give for CC1=C(C(=O)Nc2ccccc2)C(c2ccccc2C)n2ncc(C(=O)Nc3ccccc3)c2N1 (stereo not given) here?
Answer: inactive: 124%

Question: Which survival does the source give for Cc1cc(C)cc(OCCn2c(C3CC(=O)N(c4ccccc4Cl)C3)nc3ccccc32)c1 (stereo not given) here?
Answer: inactive: 85%

Question: With CC(=O)c1ccc(N2CCN(S(=O)(=O)c3c(C)nc4sc(C)cn4c3=O)CC2)cc1 as the compound, how does the survival read?
Answer: inactive: 75%

Question: For CCOC(=O)c1[nH]c(C)c(CCC(=O)Nc2c(C)cc(C)cc2C)c1C, which survival is on record?
Answer: inactive: 117%

Question: CCCn1c(SCc2nc(-c3ccccc3C)no2)nnc1-c1ccc(Cl)cc1 was tested. Which survival did it give?
Answer: inactive: 47%

Question: Which survival does the source give for COc1ccc(N2C(=O)CSC23C(=O)N(CC(=O)NC2CCCCC2)c2ccccc23)cc1 (stereo not given) here?
Answer: inactive: 83%

Question: For CCc1nn(CC(=O)N2CCN(c3cccc(C)c3C)CC2)c(=O)c2cc3occc3n12, which survival is on record?
Answer: inactive: 77%

Question: How did the survival turn out when Cc1cccc(N2CCN(C(=O)C3CCC(CNS(=O)(=O)c4ccc(Br)s4)CC3)CC2)c1C (stereo not given) was run?
Answer: inactive: 84%

Question: Which survival does the source give for Cc1cc2cccc(C)c2nc1SCC(=O)O here?
Answer: inactive: 80%

Question: COc1ccc(Cn2c(C(=O)O)c(CNCc3cccc(OC)c3)c3ccc(C)cc32)cc1 was tested. Which survival did it give?
Answer: inactive: 74%

Question: Which survival does the source give for COC(=O)c1cnn(-c2ccc(C(=O)Nc3cccc(C(C)=O)c3)cc2)c1N here?
Answer: inactive: 70%

Question: CCOc1ccc(NC(=O)CC2C(=O)N(c3ccccc3)C(=O)N2CCc2ccc(OC)cc2)cc1 (stereo not given) was tested. Which survival did it give?
Answer: inactive: 59%

Question: With Cc1ccc(NC(=O)Cn2nc(C)c3nn(-c4ccc(Cl)cc4)c(C)c3c2=O)cc1C as the compound, how does the survival read?
Answer: inactive: 75%

Question: For Cn1c(=O)oc2cc(S(=O)(=O)N3CCC(C(=O)NCc4ccccc4Cl)CC3)ccc21, which survival is on record?
Answer: inactive: 125%

Question: How did the survival turn out when O=C1CN(C(=O)Cc2ccc(F)cc2)C(c2ccccc2)c2cc(Br)ccc2N1 (stereo not given) was run?
Answer: inactive: 58%

Question: With CC1(C)C=C2C(=NN(c3ccccc3)C(N)=C2C#N)CO1 as the compound, how does the survival read?
Answer: inactive: 73%

Question: For Cc1cc(S(=O)(=O)N2CCCC2)ccc1-n1cnnn1, which survival is on record?
Answer: inactive: 113%

Question: Cn1c(NCCCCO)nc2c1c(=O)n(Cc1ccc(Cl)cc1)c(=O)n2C was tested. Which survival did it give?
Answer: inactive: 108%

Question: Which survival does the source give for COc1ccc(NC(=O)Cn2c(=O)n(CCCC(=O)NCc3ccccc3OC)c(=O)c3ccccc32)cc1Cl here?
Answer: inactive: 118%

Question: For COc1cccc(NC(=O)CCS(=O)(=O)c2ccc3c(c2)oc(=O)n3C)c1, which survival is on record?
Answer: inactive: 89%

Question: For O=C(Cn1cc(S(=O)(=O)Cc2ccccc2Cl)c2ccccc21)NCc1ccccc1Cl, which survival is on record?
Answer: inactive: 99%

Question: Which survival does the source give for CCc1nnc(NC(=O)c2nc(S(=O)(=O)Cc3cccc(C)c3)ncc2Cl)s1 here?
Answer: active: 31%

Question: For CCOC(=O)N1CCN(C(=O)Cc2cccs2)CC1, which survival is on record?
Answer: inactive: 67%

Question: Which survival does the source give for CCc1nn(CC(=O)NC(C)CCc2ccccc2)c(=O)c2cc3cc(F)ccc3n12 (stereo not given) here?
Answer: inactive: 92%

Question: With CCCCn1cc(S(=O)(=O)c2ccc(C)c(C)c2)c(=O)c2cc(F)c(N3CCN(C)CC3)cc21 as the compound, how does the survival read?
Answer: inactive: 101%

Question: For NC(=O)CSc1oc(-c2ccco2)nc1S(=O)(=O)c1ccc(Br)cc1, which survival is on record?
Answer: inactive: 73%

Question: For Cn1c(CN2CCCCC2)nc2cc(NC(=O)c3cccc(Br)c3)ccc21, which survival is on record?
Answer: inactive: 93%

Question: How did the survival turn out when CCn1cc(C(=O)NCCCOC(C)C)c(=O)c2cc(S(=O)(=O)N3CCc4ccccc4C3)ccc21 was run?
Answer: inactive: 119%

Question: With O=C(CN1C(=O)CCSc2ccc(S(=O)(=O)N3CCCC3)cc21)Nc1ccccc1 as the compound, how does the survival read?
Answer: inactive: 87%

Question: CCC(C(=O)Nc1ccccc1C(=O)OC)n1c(C)c2cnn(-c3ccccc3)c(=O)c2c1C (stereo not given) was tested. Which survival did it give?
Answer: inactive: 76%

Question: Which survival does the source give for CCC(Oc1ccccc1)C(=O)Nc1ccc(O)c(-c2nc3cc(C)ccc3o2)c1 (stereo not given) here?
Answer: inactive: 50%

Question: Which survival does the source give for Cc1ccccc1NC(=O)CC1COc2ccccc2O1 (stereo not given) here?
Answer: inactive: 78%

Question: For Cc1ccc(N(CC(=O)Nc2ccc(Br)cc2)S(=O)(=O)c2cccs2)cc1, which survival is on record?
Answer: inactive: 81%

Question: For CCc1ccccc1NC(=O)c1ccc2nc(C(C)C)oc2c1, which survival is on record?
Answer: inactive: 73%

Question: For O=C(Nc1nnc2n1CCS2)c1ccccc1C(F)(F)F, which survival is on record?
Answer: inactive: 93%

Question: For CC(C)CCNC(=O)CCC(=O)NNc1nc2ccccc2c2nc(-c3ccccc3)nn12, which survival is on record?
Answer: inactive: 123%

Question: Which survival does the source give for O=c1c(Cl)c(NCCO)ncn1-c1ccccc1 here?
Answer: inactive: 68%

Question: COc1cc(OC)cc(C(=O)N2CC(=O)Nc3ccc(Cl)cc3C2c2ccccc2)c1 (stereo not given) was tested. Which survival did it give?
Answer: inactive: 74%

Question: With CC(=O)ON1C(c2ccccc2)[N+]([O-])=C(c2ccccc2)C1(C)C (stereo not given) as the compound, how does the survival read?
Answer: inactive: 67%

Question: How did the survival turn out when CCOc1ccc(CNS(=O)(=O)c2cc3c(cc2C)NC(=O)CO3)cc1 was run?
Answer: inactive: 92%

Question: Which survival does the source give for CC(=O)c1ccc(N2CCN(C(=O)CCCCn3c(=O)[nH]c4ccsc4c3=O)CC2)cc1 here?
Answer: inactive: 77%

Question: For O=C(Nc1cccc(C(F)(F)F)c1)c1cc(-c2ccc3c(c2)OCCO3)on1, which survival is on record?
Answer: inactive: 116%

Question: CCSc1nnc(NC(=O)c2cc(=O)c3cc(C)c(C)cc3o2)s1 was tested. Which survival did it give?
Answer: active: 44%

Question: How did the survival turn out when CCOC(=O)C1=C(c2ccccc2)OC(N)=C(C#N)C1c1ccncc1 (stereo not given) was run?
Answer: inactive: 87%

Question: Which survival does the source give for CCc1cnc2c(c1SCC(=O)c1ccc(Cl)cc1)c(=O)n(C)c(=O)n2C here?
Answer: inactive: 96%

Question: Which survival does the source give for CCOC(=O)c1c(-c2ccc(OC)cc2)oc2ccc(OCc3ccc(Br)cc3)cc12 here?
Answer: inactive: 63%

Question: For CSc1nc(C)c2cc(C)ccc2n1, which survival is on record?
Answer: inactive: 89%

Question: For O=C(NCc1ccccc1)C(=O)NCC(c1cccs1)S(=O)(=O)c1ccccc1 (stereo not given), which survival is on record?
Answer: active: 52%

Question: Which survival does the source give for COc1ccc2cc3cc(C(=O)NCc4ccccc4OC)oc3nc2c1 here?
Answer: inactive: 80%

Question: Which survival does the source give for CCC(C)(C)n1nnnc1C(c1ccccc1OC)N1CCN(C(=O)c2ccco2)CC1 (stereo not given) here?
Answer: inactive: 87%

Question: COc1ccc(C2=C(C)C(N3CCC(C(=O)Nc4ccc(F)cc4C)CC3)=NS2(=O)=O)cc1 was tested. Which survival did it give?
Answer: inactive: 83%

Question: For O=C1CC(N2CCCC2)C(=O)N1c1ccccc1 (stereo not given), which survival is on record?
Answer: inactive: 96%

Question: O=C(Nc1ccc(Cl)c(C(F)(F)F)c1)C(Cc1ccccc1)NS(=O)(=O)c1ccc(Br)s1 (stereo not given) was tested. Which survival did it give?
Answer: inactive: 82%

Question: Brc1cccc(-c2cnn3c(-c4ccccc4)cc(-c4ccccc4)nc23)c1 was tested. Which survival did it give?
Answer: inactive: 74%

Question: With CCN(CC)C(=O)CN1C(=O)/C(=C/c2ccccc2)SC1=S as the compound, how does the survival read?
Answer: inactive: 78%

Question: For CCOc1ccc(NC(=O)C(=O)NCc2ccco2)cc1, which survival is on record?
Answer: inactive: 61%

Question: With COc1cccc(C(=O)NCC(c2ccc3c(c2)OCO3)N2CCOCC2)c1 (stereo not given) as the compound, how does the survival read?
Answer: inactive: 112%

Question: With O=C(c1ccccc1Cl)N1CCCCC1CCN1CCCCC1 (stereo not given) as the compound, how does the survival read?
Answer: inactive: 100%

Question: O=C(Nc1nnc2n1CCS2)c1ccc(F)cc1F was tested. Which survival did it give?
Answer: inactive: 82%

Question: COc1ccc(NC(=O)C(C)N(c2ccccc2)S(C)(=O)=O)cc1 (stereo not given) was tested. Which survival did it give?
Answer: inactive: 73%

Question: For COc1ccc2cc(C#N)c(=S)[nH]c2c1, which survival is on record?
Answer: inactive: 78%

Question: How did the survival turn out when Cc1cccc(N2CCN(S(=O)(=O)c3csc(C(N)=O)c3)CC2)c1C was run?
Answer: inactive: 76%

Question: How did the survival turn out when Cc1ccc(-c2nc3ncccc3o2)cc1NC(=O)c1ccc(-c2ccc(Cl)cc2)o1 was run?
Answer: active: 35%
